Test results as given in a compilation of properties of binary mixtures (doi:10.1021/acs.jced.1c00023).
Some of these densities may be calculated back from excess volumes.

Assay: xn = mol fraction of the nth substance listed
Conditions: 101.3 kPa

| Compound | mass density (293.15 K, x2 = 0.333) [kg/m3] | mass density (298.15 K, x2 = 0.333) [kg/m3] | mass density (303.15 K, x2 = 0.333) [kg/m3] | mass density (308.15 K, x2 = 0.333) [kg/m3] | mass density (313.15 K, x2 = 0.333) [kg/m3] | mass density (318.15 K, x2 = 0.333) [kg/m3] | mass density (323.15 K, x2 = 0.333) [kg/m3] | mass density (328.15 K, x2 = 0.333) [kg/m3] | mass density (298.15 K, x2 = 0.5) [kg/m3] | mass density (318.15 K, x2 = 0.5) [kg/m3] | mass density (323.15 K, x2 = 0.5) [kg/m3] | mass density (328.15 K, x2 = 0.5) [kg/m3] |
| --- | --- | --- | --- | --- | --- | --- | --- | --- | --- | --- | --- | --- |
| Oc1cccc(O)c1O + CCCCCCCCCCCC[N+](C)(C)C.[Br-] | 1173 | 1169.4 | 1165.6 | 1161.7 | 1158.1 | 1154.6 | 1151.1 | 1147.6 | – | – | – | – |
| Oc1cccc(O)c1O + CCC[N+](CCC)(CCC)CCC.[Br-] | – | – | – | – | – | – | – | – | 1204.7 | 1190.2 | 1186.8 | 1183.4 |
